Lines with a small IC50 respond at low doses; a limit (>, <) means that the fit lies beyond the doses tested. AUC, from the same fit, is the share of area under the viability curve across the 256-fold dose range: 1 means no effect, lower means more sensitive. For part of these data: Where the top dose is marked as inferred, it is not printed in the source and was worked back from the curve model. For part of these data: Drugs with an entry number were screened twice under separate entries, and the two screens often disagree.
How the values were obtained:
Test in all cases: Viability of human cancer cell lines after 72 h of drug (GDSC screen)
Afatinib = compound: CN(C)C/C=C/C(=O)Nc1cc2c(Nc3ccc(F)c(Cl)c3)ncnc2cc1O[C@H]1CCOC1 [Afatinib]
Experimental: (§1)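 Human cancer cell lines in 384-well plates, medium with 10% serum, drug for 72 h over a 256-fold dose range (nine 2-fold or five 4-fold steps up to the top dose). Adherent lines were fixed and stained with the nucleic acid dye Syto60, suspension lines read with resazurin; signal relative to control wells, capped at 0 and 100%. One two-parameter sigmoid per drug and line, fitted in a mixed model over all curves with the slope shared within a line.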

SNX-2112 = compound: CC1(C)CC(=O)c2c(C(F)(F)F)nn(-c3ccc(C(N)=O)c(N[C@H]4CC[C@H](O)CC4)c3)c2C1 [SNX-2112]; conditions: top dose 2.56 µM
Experimental: as §1

Vinblastine = compound: CC[C@]1(O)C[C@@H]2CN(CCc3c([nH]c4ccccc34)[C@@](C(=O)OC)(c3cc4c(cc3OC)N(C)[C@H]3[C@@](O)(C(=O)OC)[C@H](OC(C)=O)[C@]5(CC)C=CCN6CC[C@]43[C@@H]65)C2)C1 [Vinblastine]; conditions: top dose 0.1 µM; top dose inferred
Experimental: as §1

PF-562271 = compound: CN(c1ncccc1CNc1nc(Nc2ccc3c(c2)CC(=O)N3)ncc1C(F)(F)F)S(C)(=O)=O [PF-562271]; conditions: top dose 2.56 µM; top dose inferred
Experimental: as §1

XMD13-2 = compound: O=C(NC1CC1)c1cccc(-c2ccc3c(NC(=O)C4CC4)n[nH]c3c2)c1 [XMD13-2]; conditions: top dose 10.24 µM; top dose inferred
Experimental: as §1

[1] = top dose 0.5 µM, screen: GDSC drug entry 1032
[2] = top dose 10 µM, screen: GDSC drug entry 1377, top dose inferred

Cell Line	AUC (Afatinib; [1])	IC50 (Afatinib; [1]) [nM]	AUC (Afatinib; [2])	IC50 (Afatinib; [2]) [nM]	AUC (SNX-2112)	IC50 (SNX-2112) [nM]	AUC (Vinblastine)	IC50 (Vinblastine) [nM]	AUC (PF-562271)	IC50 (PF-562271) [nM]	AUC (XMD13-2)	IC50 (XMD13-2) [nM]
NCI-H2135 (non-small cell lung carcinoma, adherent)	0.991	> 500	0.99	> 10000	0.37	71.1	0.962	> 100	0.969	> 2560	0.939	> 10200
Hs939-T (melanoma, adherent)	0.984	> 500	0.983	> 10000	0.946	> 2560	0.693	23	0.923	> 2560	0.969	> 10200
SAS (head and neck, adherent)	0.842	411	0.803	5630	0.436	105	0.676	20.5	0.96	> 2560	0.897	> 10200
OVTOKO (ovary, adherent)	0.77	244	0.791	5880	0.844	> 2560	0.52	7.21	0.745	998	0.962	> 10200
HC-1 (hairy cell leukaemia, suspension)	0.987	> 500	0.961	> 10000	0.236	28.6	0.862	80.3	0.94	> 2560	0.749	3190
BHT-101 (thyroid, adherent)	0.973	> 500	0.983	> 10000	0.511	172	0.756	35.1	0.864	2350	0.966	> 10200
OS-RC-2 (kidney, adherent)	0.948	> 500	0.953	> 10000	0.715	866	0.771	56.8	0.881	> 2560	0.947	> 10200
42-MG-BA (glioma, adherent)	0.984	> 500	0.974	> 10000	0.547	216	0.568	9.74	0.895	> 2560	0.94	> 10200
NCI-H209 (small cell lung carcinoma, suspension)	0.986	> 500	0.928	> 10000	0.861	2420	0.601	12.1	0.97	> 2560	0.823	6630
SK-MEL-24 (melanoma, adherent)	0.959	> 500	0.921	> 10000	0.335	50.3	0.826	78.2	0.95	> 2560	0.982	> 10200
PL4 (pancreas, adherent)	0.973	> 500	0.928	> 10000	0.839	1830	0.878	> 100	0.967	> 2560	0.979	> 10200
IST-SL1 (small cell lung carcinoma, semi-adherent)	0.98	> 500	0.978	> 10000	0.886	> 2560	0.336	2.15	0.905	> 2560	0.683	2110
G-361 (melanoma, adherent)	0.982	> 500	0.987	> 10000	0.694	546	0.739	29.1	0.898	> 2560	0.985	> 10200
COLO-320-HSR (large intestine, suspension)	0.988	> 500	0.99	> 10000	0.359	69.3	0.848	60	0.95	> 2560	0.983	> 10200
M14 (melanoma, adherent)	0.984	> 500	0.978	> 10000	0.561	237	0.575	10.2	0.983	> 2560	0.986	> 10200
RKN (ovary, adherent)	0.975	> 500	0.972	> 10000	0.697	594	0.496	6.08	0.96	> 2560	0.917	> 10200
RT4 (bladder, adherent)	0.987	> 500	0.986	> 10000	0.44	109	0.82	61.4	0.965	> 2560	0.938	> 10200
OV-90 (ovary, adherent)	0.98	> 500	0.912	> 10000	0.641	439	0.677	22.6	0.961	> 2560	0.973	> 10200
SK-N-FI (neuroblastoma, adherent)	0.981	> 500	0.986	> 10000	0.833	1630	0.946	> 100	0.988	> 2560	0.908	> 10200
Ca-Ski (cervix, adherent)	0.876	> 500	0.87	> 10000	0.465	127	0.451	4.5	0.94	> 2560	0.73	3170
NB13 (neuroblastoma, adherent)	0.99	> 500	0.99	> 10000	0.299	47	0.418	3.83	0.958	> 2560	0.901	> 10200
HCT-15 (large intestine, adherent)	0.985	> 500	0.985	> 10000	0.568	248	0.904	> 100	0.986	> 2560	0.972	> 10200

Cell Line	AUC (Afatinib; [1])	IC50 (Afatinib; [1]) [nM]	AUC (Afatinib; [2])	IC50 (Afatinib; [2]) [nM]	AUC (SNX-2112)	IC50 (SNX-2112) [nM]	AUC (Vinblastine)	IC50 (Vinblastine) [nM]	AUC (PF-562271)	IC50 (PF-562271) [nM]	AUC (XMD13-2)	IC50 (XMD13-2) [nM]
TE-6 (oesophagus, adherent)	0.796	281	0.86	> 10000	0.847	2380	0.78	48.4	0.936	> 2560	0.977	> 10200
SJSA-1 (bone, adherent)	0.977	> 500	0.961	> 10000	0.563	244	0.628	14.8	0.952	> 2560	0.907	> 10200
HCC1954 (breast, adherent)	0.964	> 500	0.677	2120	0.911	> 2560	0.782	49.4	0.975	> 2560	0.841	8940
P32-ISH (Burkitt lymphoma, suspension)	0.995	> 500	0.987	> 10000	0.254	39.4	0.312	2.16	0.931	2440	0.55	847
OVCAR-5 (ovary, adherent)	0.966	> 500	0.912	> 10000	0.652	461	0.654	18.4	0.788	1370	0.946	> 10200
GOTO (neuroblastoma, adherent)	0.984	> 500	0.975	> 10000	0.753	962	0.539	8.08	0.925	> 2560	0.942	> 10200
SW1573 (lung adenocarcinoma, adherent)	0.97	> 500	0.938	> 10000	0.978	> 2560	0.761	47.3	0.913	> 2560	0.973	> 10200
CaR-1 (large intestine, adherent)	0.807	436	0.707	3260	0.546	227	0.764	55.5	0.929	> 2560	0.958	> 10200
HSC-2 (head and neck, adherent)	0.719	123	0.623	1330	0.66	428	0.682	19.3	0.83	1440	0.967	> 10200
JVM-3 (lymphoid neoplasm, suspension)	0.984	> 500	0.967	> 10000	0.396	82.3	0.134	0.428	0.976	> 2560	0.981	> 10200
MKN45 (stomach, adherent)	0.979	> 500	0.958	> 10000	0.728	856	0.685	23.8	0.905	> 2560	0.946	> 10200
BB30-HNC (head and neck, adherent)	0.639	74.9	0.579	1030	0.351	62.6	0.39	3.14	0.913	> 2560	0.899	> 10200
DK-MG (glioma, adherent)	0.963	> 500	0.947	> 10000	0.704	809	0.661	21.9	0.948	> 2560	0.949	> 10200
CS1 (bone, adherent)	0.984	> 500	0.982	> 10000	0.468	130	0.502	6.35	0.962	> 2560	0.746	3570
NCI-H2452 (mesothelioma, adherent)	0.982	> 500	0.932	> 10000	0.949	> 2560	0.589	11.5	0.889	> 2560	0.984	> 10200
CAL-29 (bladder, adherent)	0.877	> 500	0.82	6320	0.511	172	0.431	3.98	0.947	> 2560	0.971	> 10200
EC-GI-10 (oesophagus, adherent)	0.562	46	0.292	163	0.879	> 2560	0.393	3.18	0.985	> 2560	0.989	> 10200
Saos-2 (osteosarcoma, adherent)	0.971	> 500	0.938	> 10000	0.981	> 2560	0.662	21.5	0.949	> 2560	0.981	> 10200
EFM-192A (breast, adherent)	0.518	35.3	0.654	1760	0.859	2520	0.74	33	0.694	601	0.98	> 10200
TGBC1TKB (biliary tract, adherent)	0.986	> 500	0.977	> 10000	0.948	> 2560	0.733	28.6	0.947	> 2560	0.985	> 10200
JHH-1 (liver, adherent)	0.69	112	0.484	563	0.791	1260	0.629	14.7	0.924	> 2560	0.916	> 10200
HT (B-cell lymphoma, suspension)	0.989	> 500	0.854	6910	0.503	163	0.699	21.5	0.957	> 2560	0.933	> 10200
